These are yes or no findings as the source states them, for the method shown. Some entries that bind do so weakly or less than the wild type. Tags and fused reporters may be left off the sequences shown.
T1: Strep-REC114^1–159 (mouse) (UniProt Q9CWH4)
T1 sequence: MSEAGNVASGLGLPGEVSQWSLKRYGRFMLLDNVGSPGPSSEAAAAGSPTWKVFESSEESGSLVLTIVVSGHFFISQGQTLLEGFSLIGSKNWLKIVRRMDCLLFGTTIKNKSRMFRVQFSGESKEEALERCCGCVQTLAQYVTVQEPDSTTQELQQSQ

T2: Strep-REC114-MEI4^1–127 complex (mouse) (UniProt Q9CWH4+Q8BRM6)
T2 sequence 1: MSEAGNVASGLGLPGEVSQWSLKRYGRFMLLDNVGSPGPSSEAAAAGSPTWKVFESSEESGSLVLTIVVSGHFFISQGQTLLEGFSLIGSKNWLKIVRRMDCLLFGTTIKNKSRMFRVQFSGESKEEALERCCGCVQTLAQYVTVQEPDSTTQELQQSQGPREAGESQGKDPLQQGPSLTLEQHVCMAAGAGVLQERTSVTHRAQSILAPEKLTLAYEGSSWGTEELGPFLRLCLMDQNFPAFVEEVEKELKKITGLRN
T2 sequence 2: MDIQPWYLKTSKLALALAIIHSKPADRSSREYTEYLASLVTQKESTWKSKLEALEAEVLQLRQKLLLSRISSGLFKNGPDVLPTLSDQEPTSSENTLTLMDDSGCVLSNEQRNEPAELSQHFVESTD

T3: Strep-tagged full-length REC114 (mouse) (UniProt Q9CWH4)
T3 sequence: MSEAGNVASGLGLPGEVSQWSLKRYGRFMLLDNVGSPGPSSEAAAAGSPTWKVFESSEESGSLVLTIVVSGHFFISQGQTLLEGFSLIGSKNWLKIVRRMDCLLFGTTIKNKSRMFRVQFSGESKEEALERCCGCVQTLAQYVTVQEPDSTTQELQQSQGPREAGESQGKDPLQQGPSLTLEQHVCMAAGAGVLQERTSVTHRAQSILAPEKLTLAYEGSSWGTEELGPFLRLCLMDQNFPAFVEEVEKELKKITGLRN


Key:
[1] = target: T1, Strep-REC114^1–159 (mouse); experiment: condition: only REC114 1-159 previously bound to His-MBP-ANKRD31 1808-1857; pull-down; Strep-REC114 1-159, free or previously bound to His-MBP-ANKRD31 1808-1857, on Strep-Tactin XT resin with increasing amounts (1x, 2x, 4x) of His-TOPOVIBL 452-579; wash 100 mM Tris pH 8, 100 mM NaCl, 5 mM β-mercaptoethanol; elution with 50 mM D-biotin; both purified
[2] = target: T1, Strep-REC114^1–159 (mouse); experiment: condition: only REC114 pre-saturated with ANKRD31 1808-1857; ITC; 25 °C; TOPOVIBL 452-579 injected into REC114 in the absence or presence of saturating amounts of ANKRD31 1808-1857; 20 mM Tris pH 8.0, 100 mM NaCl, 5% glycerol, 5 mM β-mercaptoethanol; both purified
[3] = target: T2, Strep-REC114-MEI4^1–127 complex (mouse); experiment: SEC; Superose 6 gel filtration of Strep-REC114-MEI4 1-127, TOPOVIBL 452-579 and their complex; both purified
[4] = target: T3, Strep-tagged full-length REC114 (mouse); experiment: pull-down; Strep-tagged REC114 held on Strep-Tactin XT resin; wash 100 mM Tris pH 8, 100 mM NaCl, 5 mM β-mercaptoethanol; elution with 50 mM D-biotin; SDS-PAGE, coomassie; both purified

Row | binding [1] | binding [2] | binding [3] | binding [4] | Binder
1 | no binding | no binding | binds |  | 6xHis-TOPOVIBL C-terminal domain (CTD; 452–579) (domain or fragment, mouse, UniProt J3QMY9 452-579, looked up, Cloned in pProEXHTb; also called TOPOVIBL CTD; source: E. coli BL21Gold (DE3), purified (Ni-Chelating Sepharose, Superdex 200)) SCDTEQHLTPEKNISAQNTKDQHKNIAQEFPEESIGQAENKRPKRGSPNHGREESRVLGSARDRSPPKSATRDRELTEVSLTARGSQTQAAHGRAQAAEAASPAGGLEDLWLQEVSNLSEWLNPGHRS
2 |  |  |  | no binding | 6xHis-SUMO-TOPOVIBL^1–385 (domain or fragment, UniProt J3QMY9 1-385) MERTALAVCEILRYLIIHWKCEAGTAKGTLLDGQLVISIEALRSKHLPDSLHCIITIASTRSVYGGLNFKKFLQEIQPALPRLSAKLALASEEGGRSQDASGIAPCQVTFEVDENSQSLMTDCLVIKHFLRKIIIVHHKLKFSFSVAVNGTLSAETFGAENEPTLRLDNGVTLVVGFQRYVSKPKLNWSEAHCSRIHPVLGHPAPLFIPDAKADTGLLGELTLTPAAALCPSPKGFSSQLCRISSVSIFLYGPLGLPLLSSDQDQPSTAVFRDTSYFIDWKKYNLFMVPNLDLNLDTQSVLPDVNYKAESPEGNQSQNMNAQGPALLLFLFVDFQSDVPVQQAKIWGLHTLLTAHLSAILSESRSTVQQSIQSAVDQVWQLYHHD

From PMC9671922, “TOPOVIBL-REC114 interaction regulates meiotic DNA double-strand breaks” (Nature Communications, 2022)
